Assay results reported in US20090136523A1.

Tests used:
Experiment in all cases: peptide microarray
[1] = biological target: peptide 108 (human)
[2] = biological target: peptide 71 (human)
[3] = biological target: peptide 31 (human)
[4] = biological target: peptide 54 (human)

Mean Signal Value [1]: 1.33
Mean Signal Value [2]: 0
Mean Signal Value [3]: 2.33
Mean Signal Value [4]: 13
B1: rhuMAb 411 (antibody, human IgG1, kappa)
heavy: EVQLVESGAGVKQPGGTLRLTCTASGFSLTTYGVHWVRQAPGKGLEWVGVIWGDGRTDYDAAFMSRVTISKDTSKSTVYLQMNSLRAEDTAVYYCMRNRHDWFDYWGQGTTVTVSS[letters of human IgG1 constant region left out]
light: DILLTQSPSSLSATPGERATITCRASQGIRNNLNWYQQKPGQAPRLLIYYSSNLQSGVPSRFSGSGSGTDFTLTISRLQPEDVAAYYCQQSIKLPFTFGSGTKVEIKRTVAAPSVFIFPPSDEQLKSGTASVVCLLNNFYPREAKVQWKVDNALQSGNSQESVTEQDSKDSTYSLSSTLTLSKADYEKHKVYACEVTHQGLSSPVTKSFNRGEC
